According to PubChem BioAssay AID1468 (National Center for Advancing Translational Sciences (NCATS), 2008):
About 1,100 (0.39%) of roughly 280,000 compounds were called active. The inconclusive results got no clear call from the source; some entries with a clear call stand among them for comparison. Calls come from the whole dose curve; as a rule, active = well fitted inhibition curve with a large enough effect; inconclusive = small, poorly fitted or top-dose-only effect, or effect the other way; inactive = flat fitted curve, though single readings scatter. Potencies of inconclusive entries are doubtful fits and often do not repeat.

biological target: Microtubule-associated protein tau (Homo sapiens) (UniProt P10636); test: qHTS for Inhibitors of Tau Fibril Formation, Fluorescence Polarization; conditions: K18 P301L tau heparin fibrillization, Alexa594 FP, 6 h; series mostly up to 57.7 µM; activity, negative = inhibition: at the top concentration; note: nearly all actives have a fitted effect of over 55% in size
Sequence of UniProt P10636 (P10636 whole entry, looked up, the tested form may be a part): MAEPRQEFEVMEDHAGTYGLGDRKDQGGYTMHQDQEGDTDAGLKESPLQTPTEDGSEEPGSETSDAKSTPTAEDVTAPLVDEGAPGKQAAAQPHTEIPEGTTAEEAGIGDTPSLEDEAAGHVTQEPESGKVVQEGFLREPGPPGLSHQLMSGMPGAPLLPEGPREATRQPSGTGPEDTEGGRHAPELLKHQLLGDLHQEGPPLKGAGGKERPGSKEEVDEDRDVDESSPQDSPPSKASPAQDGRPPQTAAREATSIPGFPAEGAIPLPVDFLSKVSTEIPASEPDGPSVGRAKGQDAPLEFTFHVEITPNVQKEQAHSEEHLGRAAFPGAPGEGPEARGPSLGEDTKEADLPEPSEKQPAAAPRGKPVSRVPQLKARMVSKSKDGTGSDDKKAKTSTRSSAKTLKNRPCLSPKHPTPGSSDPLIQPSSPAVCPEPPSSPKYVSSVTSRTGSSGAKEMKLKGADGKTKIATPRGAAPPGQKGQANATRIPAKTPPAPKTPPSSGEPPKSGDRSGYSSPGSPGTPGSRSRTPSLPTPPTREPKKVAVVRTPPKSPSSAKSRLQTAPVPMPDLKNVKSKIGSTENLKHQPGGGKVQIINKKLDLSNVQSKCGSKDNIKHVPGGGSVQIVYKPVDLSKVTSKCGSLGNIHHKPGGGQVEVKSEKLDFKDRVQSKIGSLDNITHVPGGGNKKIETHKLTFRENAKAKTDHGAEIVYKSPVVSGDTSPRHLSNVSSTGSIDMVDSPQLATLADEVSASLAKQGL
Outline: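 Human tau K18 […] P301L fragment, 15 uM unlabeled plus 0.24 uM Alexa 594-labeled tau (final), with compound and 20 uM heparin in 100 mM sodium acetate pH 7; 6 hr at 37 C, then Alexa 594 FP read.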
% is set by controls: 0 for no effect and ±100 for the full control effect; potency is the fitted concentration of half-maximal effect; tags give direction and shape of the fitted curve.

Potency, active:
CCC1=Nc2cc(C(=O)NCC3CCCO3)ccc2Sc2ccc(Br)cc21 (stereo not drawn) 3.98 µM
CC(C)Cn1c(O)c(/C=C2\C=NN=C2c2ccccc2)sc1=S 20 µM
Cc1ccc(-c2nn(-c3ccccc3)cc2C(=O)Nc2ccc(C)c(S(=O)(=O)N3CCOCC3)c2)cc1 15.8 µM

Potency, inconclusive:
O=C(Cn1c(=O)n(Cc2ccc(C(=O)NCc3ccc4c(c3)OCO4)cc2)c(=O)c2ccccc21)Nc1ccccc1F 39.8 µM [inhibitor, single point]
Cc1cc(C)c2cc(C#N)c(SCC(=O)NCc3ccco3)nc2c1 8.91 µM [inhibitor, single point]
CCCCOC(=O)C1C2C=C[C@]3(CN(CCCOC)C(=O)[C@H]13)O2 (stereo partly drawn) 0.631 µM [inhibitor, full curve, poor fit]
Cc1ccc(Nc2nc(Nc3ccc(C)cc3)nc(SC3=NCCS3)n2)cc1 35.5 µM [inhibitor, single point]
CC1=CC(C)(C)Nc2ccc(OC(=O)CCN3C(=O)c4ccccc4C3=O)cc21 10 µM [activator, partial curve, poor fit]
COc1cc(OC)cc(C(=O)Oc2c(Sc3ccccc3)c(C)nn2C(C)(C)C)c1 0.0447 µM [inhibitor, full curve, poor fit]
Cc1cccc(CSc2nc3c(c(=O)[nH]2)CCCC3)c1 7.94 µM [inhibitor, single point]
CN(/N=C/c1c[nH]c2ccccc12)c1cnn(-c2ccc(F)c(Cl)c2)c(=O)c1Cl 7.94 µM [activator, single point]
CC(=O)Nc1ccc(C(=O)CSc2cc(C)c3cccc(C)c3n2)cc1 14.1 µM [inhibitor, partial curve]
Cc1ccc(S(=O)(=O)c2c(N)n(NC(=O)c3ccccc3C)c3nc4ccccc4nc23)cc1 22.4 µM [inhibitor, single point]
O=C(CCSc1nc(-c2ccco2)cc(C(F)(F)F)n1)Nc1cccc(O)c1 14.1 µM [inhibitor, partial curve, poor fit]
COc1cccc(NC(=O)CSc2nc3c(oc4ccccc43)c(=O)n2Cc2ccco2)c1 15.8 µM [inhibitor, partial curve]
O=C(Cn1ccn(-c2ccc(F)c(F)c2)c(=O)c1=O)Nc1ccccc1F 11.2 µM [inhibitor, partial curve]
Cc1ccc(C)n1-c1nnc(N2CCCC(C(=O)NCc3ccc(Cl)cc3)C2)s1 (stereo not drawn) 20 µM [inhibitor, single point]
Cc1cc(C)nc(SCC(=O)N/N=C\C(Br)=C\c2ccccc2)n1 28.2 µM [inhibitor, single point]
CCc1nn(-c2ccccc2)c2nc(-c3ccccc3OC)c3cc(OC)c(OC)cc3c12 39.8 µM [inhibitor, single point]
CCOC(=O)CSc1ccc(S(=O)(=O)N(C)C2CCCCC2)cc1[N+](=O)[O-] 4.47 µM [activator, full curve]
CCC(=O)N1CCCn2c1nc1ccccc12 10 µM [inhibitor, single point]
CCCCN1C(=O)c2[nH]nc(-c3ccccc3O)c2C1c1cccc(OCc2ccccc2)c1 (stereo not drawn) 15.8 µM [inhibitor, partial curve]
COc1cccc(NC(=O)NCc2ccc3c(c2)CCN3C(=O)c2ccccc2)c1 39.8 µM [inhibitor, single point]
COC(=O)c1cccc(NC(=O)/C=C/c2ccc3c(c2)OCO3)c1 22.4 µM [inhibitor, partial curve, poor fit]
COc1ccccc1C1C=C(c2ccc(F)cc2)Nc2nc(-c3ccc(Cl)cc3)nn21 (stereo not drawn) 44.7 µM [inhibitor, single point]
CC(=O)c1cc(O)c2ccccc2c1O 25.1 µM [inhibitor, partial curve]
CCOc1ccc(CCNC(=O)CCc2c(C)nc3c4c(C)cc(C)nc4nn3c2C)cc1 12.6 µM [activator, single point]
O=C(Nc1ccc(F)cc1)c1sccc1SCc1cccc(C(F)(F)F)c1 17.8 µM [inhibitor, partial curve]
C/C(=N/Nc1ccc(C(=O)O)cc1)c1ccc(O)c(O)c1O 17.8 µM [inhibitor, partial curve]
Cc1nc(C)c(-c2csc(Nc3ccc(F)cc3)n2)s1 0.0562 µM [activator, full curve, poor fit]
C[C@@]1(C(=O)O)NCCc2cc(O)c(O)cc21 35.5 µM [inhibitor, single point]
COc1ccccc1CNS(=O)(=O)c1cc(C(=O)Nc2cccc(C(F)(F)F)c2)ccc1F 25.1 µM [inhibitor, partial curve]
O=C(Nc1ccccc1)C(Cc1ccccc1)N1Cc2ccccc2C1=O (stereo not drawn) 28.2 µM [inhibitor, partial curve]
C=CCn1c(O)c(CN2CCCCC2)c(C)c(C#N)c1=O 31.6 µM [inhibitor, single point]
C=CCN1C(=O)N/C(=C/c2ccc(N3CCOCC3)o2)C1=O 8.91 µM [inhibitor, partial curve]
COc1cc(-c2nnc(SCCOc3ccc(Cl)cc3C)o2)cc(OC)c1OC 15.8 µM [inhibitor, partial curve]
N#C/C(=C\c1cn(-c2ccccc2)nc1-c1cc2ccccc2o1)c1nc2ccccc2[nH]1 31.6 µM [inhibitor, single point]
CCN(C(=S)Nc1cccnc1)c1cccc2ccccc12 3.55 µM [inhibitor, full curve, poor fit]
COc1ccc(/C=C/C(=O)c2ccc(NC(=O)c3cccs3)cc2)cc1OC 7.08 µM [inhibitor, partial curve]
CC(/C=N/N1CCN(c2ccccc2)CC1)=C\c1ccccc1 1.78 µM [activator, single point]
O=C(Nc1ccc2oc(-c3ccccc3F)nc2c1)c1ccccc1Cl 20 µM [inhibitor, single point]
O=C(c1ccco1)n1nc(-c2ccccc2)nc1NCc1ccco1 11.2 µM [inhibitor, partial curve, poor fit]
O=[N+]([O-])c1cc(S(=O)(=O)Nc2cccc(C(F)(F)F)c2)ccc1-n1nnc2ccccc21 15.8 µM [activator, partial curve]
CC(C)=CCCC1=CCC(/C(C)=N/NC(N)=O)CC1 (stereo not drawn) 44.7 µM [inhibitor, single point]
COc1ccc2[nH]c(C)c(CCNc3ccc(C(F)(F)F)cc3[N+](=O)[O-])c2c1 5.01 µM [activator, full curve]
COc1ccc(NC(=O)CC2C(=O)N(c3ccc(Cl)cc3)C(=S)N2CCc2ccccn2)cc1 (stereo not drawn) 20 µM [inhibitor, single point]
O=C(NC1C(=O)NNC1c1ccccc1)c1ccccc1 (stereo not drawn) 1.78 µM [inhibitor, full curve]

Potency, inactive:
Nc1ccccc1C(=O)/C=C/c1ccc2c(c1)OCO2

activity, negative = inhibition, inactive:
O=C(/C=C(\O)c1ccccc1)c1ccccc1O -0.74%
Cc1ccc(Cl)cc1N1CCN(C(=O)c2cnc(N3CCOCC3)c3ccccc23)CC1 4.45%
COc1cc(/C=C/c2ccc3cccc(OC)c3n2)c(O)c([N+](=O)[O-])c1 -12.4%
Cc1ccccc1NC(=O)c1ccc(F)c(S(=O)(=O)N(C)Cc2ccccc2)c1 -4.06%
CSc1ccc(Cl)c(C(=O)Nc2ccc(N3CCOCC3)cc2)c1 8.61%
COc1ccc2c(CCNC(N)=S)c[nH]c2c1 -11%
COc1cccc(N2CCN(C(=O)c3ccc4c(=O)n(CCc5ccccc5)c(=O)[nH]c4c3)CC2)c1 -9.85%
O=C(CSc1ncc(S(=O)(=O)c2ccc(Br)cc2)c(=O)[nH]1)NCc1ccc(Cl)cc1 -1.94%
O=C(Cc1c(Cl)cccc1Cl)OCC(=O)N1CCN(C(=O)c2ccco2)CC1 -0.188%
Cc1cc2c3c(c1)C1(C(=O)N3C(C)(C)CC2C)C(C#N)=C(N)Oc2cc(O)ccc21 (stereo not drawn) -8.57%
CCOc1ccc2c(c1)-c1c(ssc1=S)C(C)(C)N2C(=O)CSC1=NCCS1 14.7%
CC=C1C2C=C(C)CC1(N)c1ccc(=O)[nH]c1C2 (stereo not drawn) -7.68%
Cc1ccc2c(c1)-c1nc(-c3ccc(Cl)cc3)cc(-c3coc4ccccc4c3=O)c1CO2 -0.65%
Cc1ccc2nc(-c3cccnc3)cc(C(=O)N3CCN(c4ccc([N+](=O)[O-])cc4)CC3)c2c1 -7.27%
Clc1ccc(CSCCc2ccncc2)cc1 3.95%
Cc1cccc(-n2c(C)cc(C=C3C(=O)c4ccccc4C3=O)c2C)c1 -2.23%
Cc1nn2c([nH]c(=O)c3ccccc32)c1C=O -1.8%
CC(C)N(c1ccccc1)c1ccc(NC(=O)CCl)cc1 -6.37%
Cc1cc(OCc2nnc(SC(C)C(=O)O)n2Cc2ccccc2)ccc1Cl (stereo not drawn) 10.1%
Cc1cc(C)n2nc(SCCCC(=O)c3ccccc3)nc2n1 3.86%
